We go through one molecule from PMC2172712 (The Journal of Cell Biology, 2003).

The experiment deals with His-tagged full-length Hrs (hepatocyte responsive serum phosphoprotein) (rat, UniProt Q9JJ50 1-776). Briefly: co-sedimentation.
Chain of UniProt Q9JJ50 (Q9JJ50 whole entry): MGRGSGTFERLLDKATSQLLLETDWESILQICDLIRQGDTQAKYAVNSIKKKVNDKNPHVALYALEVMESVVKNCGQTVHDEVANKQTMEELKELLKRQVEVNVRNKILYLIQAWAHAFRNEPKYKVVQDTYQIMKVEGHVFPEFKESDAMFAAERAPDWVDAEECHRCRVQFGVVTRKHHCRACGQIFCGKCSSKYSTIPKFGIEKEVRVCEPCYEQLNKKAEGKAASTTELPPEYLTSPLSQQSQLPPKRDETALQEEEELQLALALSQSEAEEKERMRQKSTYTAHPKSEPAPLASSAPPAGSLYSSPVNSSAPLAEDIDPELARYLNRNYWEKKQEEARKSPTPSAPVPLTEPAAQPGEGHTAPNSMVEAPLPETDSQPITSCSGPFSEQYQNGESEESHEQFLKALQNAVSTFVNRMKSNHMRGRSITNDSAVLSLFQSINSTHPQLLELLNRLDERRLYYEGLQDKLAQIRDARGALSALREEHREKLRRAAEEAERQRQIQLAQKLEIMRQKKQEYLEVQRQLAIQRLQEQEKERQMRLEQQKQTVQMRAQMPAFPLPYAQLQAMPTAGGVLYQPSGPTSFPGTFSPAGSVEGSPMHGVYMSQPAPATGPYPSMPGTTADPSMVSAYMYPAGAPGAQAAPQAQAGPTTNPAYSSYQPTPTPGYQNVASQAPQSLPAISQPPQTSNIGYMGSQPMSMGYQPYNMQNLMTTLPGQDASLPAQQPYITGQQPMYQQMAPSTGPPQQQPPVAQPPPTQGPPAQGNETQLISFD

B1: SNAP-25([…]) (domain or fragment)
chain: not shown
Take B1: the binding result is given as “binds”.
